Laboratory results published in patent publication US20230250148A1 (published 2023).
Where two headings read alike, the source gives them in different places. One block for each binder: values may come before it.

Key:
biotinylated human FcRn [1] = target: T1, biotinylated human FcRn (human, UniProt P55899 part only; P61769 part only, limits assumed, biotinylated, site not stated); experiment: ELISA pH 5.5, fusion protein coated, biotinylated human FcRn titrated
T1 construct: Bought reagent (Immunitrack); composition not described; also called human FcRn receptor

biotinylated human FcRn [2] = target: T1, biotinylated human FcRn; experiment: as above; remark: listed apart in the source
biotinylated human FcRn [3] = target: T1, biotinylated human FcRn; experiment: as above; remark: listed apart in the source
[4] = target: T2, biotinylated human complement component C1q (human, UniProt P02745; P02746; P02747, biotinylated, site not stated); experiment: ELISA, fusion protein coated, biotinylated human C1q at 1000 ng/mL
T2 construct: also called biotinylated-C1q

biotinylated human FcRn [5] = target: T1, biotinylated human FcRn; experiment: ELISA pH 5.5, fusion protein coated, biotinylated human FcRn titrated; remark: listed apart in the source
[6] = target: T3, biotinylated recombinant human Fc(gamma)RI (human, UniProt P12314 16-288, biotinylated, site not stated); experiment: ELISA, fusion protein coated, biotinylated rhFc(gamma)RI at 3000 ng/mL
T3 construct: Bought reagent; construct not described; also called rhFc(gamma)RI; Fc(gamma) receptor I
T3 sequence (P12314 16-288 limits assumed): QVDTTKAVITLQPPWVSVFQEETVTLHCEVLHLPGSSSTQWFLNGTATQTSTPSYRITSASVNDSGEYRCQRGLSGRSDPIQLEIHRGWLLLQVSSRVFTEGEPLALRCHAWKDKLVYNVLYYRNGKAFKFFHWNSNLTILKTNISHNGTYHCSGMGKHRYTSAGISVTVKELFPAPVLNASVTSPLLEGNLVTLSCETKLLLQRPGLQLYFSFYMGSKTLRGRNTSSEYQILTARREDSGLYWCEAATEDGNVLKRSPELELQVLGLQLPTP

T2 sequence (P02745 23-245 limits assumed, chain 1 of 3): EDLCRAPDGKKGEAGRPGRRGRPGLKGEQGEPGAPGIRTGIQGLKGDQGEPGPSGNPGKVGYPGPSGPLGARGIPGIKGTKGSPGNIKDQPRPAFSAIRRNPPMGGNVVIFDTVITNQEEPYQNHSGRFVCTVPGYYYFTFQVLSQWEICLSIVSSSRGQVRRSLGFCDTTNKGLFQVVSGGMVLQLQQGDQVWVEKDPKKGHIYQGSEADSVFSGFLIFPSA
T2 sequence (P02746 28-253 limits assumed, chain 2 of 3, further chain): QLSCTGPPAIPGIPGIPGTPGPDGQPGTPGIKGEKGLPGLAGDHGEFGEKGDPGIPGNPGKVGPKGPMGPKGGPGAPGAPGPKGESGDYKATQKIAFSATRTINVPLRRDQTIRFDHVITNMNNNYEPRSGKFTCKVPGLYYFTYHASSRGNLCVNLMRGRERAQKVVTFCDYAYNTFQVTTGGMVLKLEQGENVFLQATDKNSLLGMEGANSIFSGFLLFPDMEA
T2 sequence (P02747 29-245 limits assumed, chain 3 of 3, further chain): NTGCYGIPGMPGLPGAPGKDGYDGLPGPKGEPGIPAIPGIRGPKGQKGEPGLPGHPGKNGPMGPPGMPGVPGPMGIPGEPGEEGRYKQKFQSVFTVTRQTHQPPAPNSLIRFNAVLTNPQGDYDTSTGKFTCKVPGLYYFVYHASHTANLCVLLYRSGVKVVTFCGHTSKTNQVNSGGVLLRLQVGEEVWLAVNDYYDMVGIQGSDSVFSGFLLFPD

B1: insulin-Fc fusion protein of SEQ ID NO: 91 (Fc fusion)
chain: FVNQHLCGSHLVEALELVCGERGFHYGGGGGGSGGGGGIVEQCCTSTCSLDQLENYCGGGGGQGGGGQGGGGQGGGGG[no letters for human IgG1 Fc with N297S (EU numbers)]
notes: non-glycosylated
EC50 (biotinylated human FcRn [1]): 0.943 µg/mL
EC50 (biotinylated human FcRn [2]): 0.943 µg/mL

B3: insulin-Fc fusion protein of SEQ ID NO: 87 (Fc fusion)
chain: FVNQHLCGSHLVEALALVCGERGFHYGGGGGGSGGGGGIVEQCCTSTCSLDQLENYCGGGGGAGGGGAGGGGAGGGGG[no letters for human IgG1 Fc with N297S (EU numbers)]
EC50 (biotinylated human FcRn [3]): 0.701 µg/mL

B4: insulin-Fc fusion protein of SEQ ID NO: 84 (Fc fusion)
chain: FVNQHLCGSHLVEALALVCGERGFHYGGGGGGSGGGGGIVEQCCTSTCSLDQLENYCGGGGGQGGGGQGGGGQGGGGG[no letters for human IgG1 Fc with N297R (EU numbers)]
% reduction in C1q binding relative to SEQ ID NO: 76 [4]: > 80%
EC50 (biotinylated human FcRn [5]): 0.696 µg/mL
% reduction in Fc(gamma)RI binding relative to SEQ ID NO: 76 [6]: > 80%

B5: insulin-Fc fusion protein of SEQ ID NO: 78 (Fc fusion)
chain: FVNQHLCGSHLVEALALVCGERGFHYGGGGGGSGGGGGIVEQCCTSTCSLDQLENYCGGGGGQGGGGQGGGGQGGGGG[no letters for human IgG1 Fc with N297S (EU numbers)]
EC50 (biotinylated human FcRn [3]): 0.825 µg/mL
% reduction in C1q binding relative to SEQ ID NO: 76 [4]: > 80%
EC50 (biotinylated human FcRn [2]): 0.825 µg/mL

B6: insulin-Fc fusion protein of SEQ ID NO: 97 (Fc fusion)
chain: FVNQHLCGSHLVEALALVCGERGFHYGGGGGGSGGGGGIVEQCCTSTCSLDQLENYCGGGGQGGGG[no letters for human IgG1 Fc with N297S (EU numbers)]
EC50 (biotinylated human FcRn [3]): 0.679 µg/mL

B7: insulin-Fc fusion protein of SEQ ID NO: 89 (Fc fusion)
chain: FVNQHLCGSHLVEALALVCGERGFHYGGGGGGSGGGGGIVEQCCTSTCSLDQLENYCGGGGAGGGG[no letters for human IgG1 Fc with N297S (EU numbers)]
EC50 (biotinylated human FcRn [3]): 0.657 µg/mL

Further lines, results first:

EC50 (biotinylated human FcRn [1]): 0.913 µg/mL
B2: insulin-Fc fusion protein of SEQ ID NO: 94 (Fc fusion)
chain: FVNQHLCGSHLVEALELVCGERGFHYGGGGGGSGGGGGIVEQCCTSTCSLDQLENYCGGGGGQGGGGQGGGGQGGGGG[no letters for human IgG1 Fc with N297R (EU numbers)]

EC50 (biotinylated human FcRn [3]): 0.401 µg/mL
B8: insulin-Fc fusion protein of SEQ ID NO: 98 (Fc fusion)
chain: FVNQHLCGSHLVEALALVCGERGFHYGGGGGGSGGGGGIVEQCCTSTCSLDQLENY[no letters for human IgG1 Fc with N297S (EU numbers)]

EC50 (biotinylated human FcRn [3]): 0.672 µg/mL
B9: insulin-Fc fusion protein of SEQ ID NO: 96 (Fc fusion)
chain: FVNQHLCGSHLVEALALVCGERGFHYGGGGGGSGGGGGIVEQCCTSTCSLDQLENYCGGGGGQGGGGQGGGGQGGGGGQGGGG[no letters for human IgG1 Fc with N297S (EU numbers)]
